The source of these data is the RNAGym collection of RNA variant scans (doi:10.7554/elife.90254).

The source gives no read counts; variants with many changes may rest on few reads.

B1: LINE1-mini (parent)
chain: GGCAGAGCUCAACACAGCGUGGCAAAGUGGCUGUGGCUAGACUGCC

Variants of B1 are the subject of the series. Briefly: self-cleavage, relative activity (ratio to wild type); higher = more cleavage; in vitro, sequencing; the parent is a self-cleaving ribozyme.
For the variant A6U C31U U32G C46A, the self-cleavage came out at 0.06. As for A4C U20G U32C, the self-cleavage turned out to be 0.01.

For the variant A6G G7U U9A C10U U32C G44C, the self-cleavage is 0.02. As for A4U C23G U38C C46A, the self-cleavage was found to be 0.01. Under A4G U28A G35C A39G stands 0.05. Regarding G1C A11C C45A, the self-cleavage was 0.01. On to G7U A12G G36U A41U, for which the self-cleavage stood at 0.02.

As to C3G C8G G29U G33A C42G C46U, the self-cleavage was determined as 0.24. Then A4G G29C G35C U43A, with 0.04; and G2A A24C G27U C31G G36U C37A, with 0.15. Under A4U A6U C31A C37U stands 0.08; under C10A C13U U43A, 0.02; under G17U G22C U28C U32A G35U G40U A41U, 0.05. Under C3U A4C G7C G17C U20C stands 0.1. As to U9C C10G A11C G17U, the self-cleavage turned out to be 0.02.

For G1C A14G C23G, the self-cleavage amounted to 0.1. Consider C31G G36A A39C, for which the self-cleavage came to 0.03. Then G1U A41G C42A, with 0.08.

As for G2A A14U G36U G40A A41U, the self-cleavage came to 0.13.

With A4G G17A C18U G22C U34C, the self-cleavage was determined as 0.07.

As for G5U G29U C37A A39C, the self-cleavage was determined as 0.01. Take G2U C8U G44U: the self-cleavage was 0.46. G5U A6U G17C C42A: the self-cleavage stood at 0.55.

Regarding G2U C3A G35C, the self-cleavage was found to be 0.02.

Regarding G1C G5C U20G G27U C31U U43G, the self-cleavage is 0. Under G1C C31G U32C G35A U43A C46U stands 0.01; under A4U U9C C10G G17U U32A G33A U38A, 0.01. For the variant C15A G29U C31U, the self-cleavage was determined as 0.02.

With G1U A4G C10U C13G G17U G19A U43A, the self-cleavage stood at 0.02. Then G1A A14G C18G, with 0.03.

With C3G C8U G19A G30A, the self-cleavage came to 0.47.

For G2U A6U C23U A24G A26U, the self-cleavage worked out at 0.06. Take G17A G21C U34G C37A: the self-cleavage was 0.02. Consider G2U C15U C23U A24G G27A G40A, for which the self-cleavage was 0.02.

Turning to C23G G27U C37A, the self-cleavage amounted to 0.01. Then G1A C10U C18U, with 0.63; and G2U A6U G7U, with 0.03. Then C10A A14G G17A A39C U43A, with 0.03; and G2A U28C C31G C46G, with 0.05; and C10A G40U U43A, with 0.02. Under C10A G19A G21U C31A G40U C46A stands 0; under C8G C13G A14C A24G G36C U38A, 0.09.

A26U C31A C37A G40U: the self-cleavage worked out at 0.04.

For G7C C15A A41U C42A, the self-cleavage was found to be 0.12.

As to C8A U9G A12C G21U C46U, the self-cleavage was 0.01. Under A11U G44U C45U stands 0.03; under G5A C15U G19A G35A G40C, 0.05; under G7A A25C G27C, 0.1. Then C3U U20A A24C U28G, with 0.14; and G7U A39C C42A, with 0.58.

On to G17A A26C A39U C45G, for which the self-cleavage is 0.02. With A14U C37G A41C, the self-cleavage came out at 0.03. Then C3A A4C G35U, with 0.13. In the case of G2A C3A G17C G19C G21A C42A, the self-cleavage came out at 0.77. Then A6U U9G A24U A26C, with 0.15; and C3U C18U G30U U38A, with 0.1. For G36A A41U C42A, the self-cleavage came out at 0.08. Consider G1A G30A C45U, for which the self-cleavage worked out at 0.55. Under C10A G19U G30U G36C C37A stands 0.01; under C3G C10A A16U C42G C46G, 0.01. Take G7U A14C G21C: the self-cleavage stood at 0.03.

A6C A26U G35C G40C: the self-cleavage worked out at 0.07. In the case of A16G U38A C42G, the self-cleavage was found to be 0.04.

C18U C37A G44C: the self-cleavage amounted to 0.02. Under C23A A24C G35U U38A stands 0.01; under C10A C23U C31U, 0.1; under G2A C8A G19A A25G G40A, 0.16. Under C10G C15G U34C U43G C46U stands 0.01; under C10G G29A C37U, 0; under A4G A12G A39G, 0.02. As for G5U U9G C10U, the self-cleavage came out at 0.07. Under G7U C10U G21A G22C G35C G36C stands 0.06; under A12C A25U G29U G44C C46U, 0.03; under G1U C3A G7U U43A C46G, 0.83. C3G A4G C13G U28G C42G: the self-cleavage was determined as 0.21.

Regarding G2C G22A C42U, the self-cleavage turned out to be 0.02. Then C15A G21A G30C G35U C42U, with 0.03; and C18A U20G C31U C46U, with 0; and G7A C23U G27A U38G C46U, with 0.02. With A6U A16C G21U C46U, the self-cleavage was 0.17. Take U9C G17C G29A G30A: the self-cleavage amounted to 0.03.

Turning to G1U C15U A16C, the self-cleavage stood at 0. Then G5A A6U G19A U28C G30C, with 0.01.

Turning to G2C G7U C13A G40U, the self-cleavage turned out to be 0.24. With G5C G7U G29C, the self-cleavage is 0.04. Under G7C A11U C15A C18U stands 0.05.
